“And” between values parts separate entries of the source, which are not always exact repeats. Equal entries are not always repeated. In all, about 420,000 compounds went through this assay and about 50,000 (12%) were called active. Inconclusive results, whose numbers are uncertain, are shown with a selection of clear calls. The call rests on the fitted dose curve; in most records, active means well fitted inhibition curve with a large enough effect; inconclusive means small, poorly fitted or top-dose-only effect; inactive means flat fitted curve, though single readings scatter. Where the call is inconclusive, the potency comes from a doubtful curve fit.
Assay: qHTS for Inhibitors of human tyrosyl-DNA phosphodiesterase 1 (TDP1): qHTS in cells in presence of CPT; further: nearly all actives have a fitted effect of over 55% in size
Details: chicken DT40 Tdp1-/-;hTDP1 cells + 20 nM CPT, ATP luminescence, 48 h; activity change, negative = growth inhibition: at 46.2 µM (top of the series) unless noted
Summary of the method: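 Chicken DT40 Tdp1-/- cells stably complemented with human TDP1 were seeded at 400 cells/well in medium containing 20 nM camptothecin, exposed to pin-transferred compounds, and grown at 37 °C for at least 48 hr. Viability was read as ATP luminescence.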
On the % scale 0 is the no-effect control and ±100 the full control effect; potency means the concentration at half of the fitted maximal effect; tags describe the fitted curve by direction and shape.

Structure (SMILES)	activity change, negative = growth inhibition	Potency
CC(NC(=O)C(=O)N1CCCCC1)C(c1cccs1)N1CCN(c2ccccc2F)CC1 (stereo unspecified)	inconclusive: -32.9% [inhibitor]	
CSCCC(NS(=O)(=O)c1ccc(Cl)cc1)C(=O)OCc1cccc(Cl)c1 (stereo unspecified)		inconclusive: 29.1 µM [inhibitor, single point]
O=C(NCC(c1cccs1)N1CCOCC1)c1cc([N+](=O)[O-])cc([N+](=O)[O-])c1 (stereo unspecified)	inactive: -29.1%	
Cc1noc(C)c1S(=O)(=O)N1CCC(C(=O)NC2CCN(Cc3ccccc3)CC2)CC1		inconclusive: 18.4 µM [inhibitor, partial curve]
Cc1ccc(C(CC(=O)NCCCN(C)C)c2ccc(OC(C)C)cc2)cc1 (stereo unspecified)		inconclusive: 16.4 µM [inhibitor, single point]
COc1ccc(C2CC(c3ccccc3)=NN2C(=O)c2ccc(Cl)c([N+](=O)[O-])c2)cc1 (stereo unspecified)		inconclusive: 29.1 µM [inhibitor, single point]
Cc1c(Cl)cccc1NC(=O)CSc1nc(=O)n(CCCN2CCOCC2)c2c1CCC2	inactive: 8.1%	
CCN1C(=NCCc2c[nH]c3ccccc23)N[C@@H](c2ccccc2)[C@H](C(=O)OC)[C@H]1C		active: 9.2 µM
COc1ccc(-c2nn3c(-c4ccccc4)nnc3s2)cc1		inconclusive: 29.1 µM [inhibitor, single point]
COc1cccc(N2CC(NC(=O)c3cc(Cl)ccc3OC)CC2=O)c1 (stereo unspecified)		inconclusive: 29.1 µM [inhibitor, single point]
C=CCOc1c(Br)cc(CNc2ccc(NC(=O)C(C)C)c(OC)c2)cc1OC		inconclusive: 18.4 µM [inhibitor, single point]
O=S(=O)(c1cccnc1)N1CCN(c2nc(-c3cccs3)nc3ccccc23)CC1		inconclusive: 35.5 µM [inhibitor, single point]
CC(C)CN(C(=O)c1cccc(S(=O)(=O)N2CCN(Cc3ccccc3)CC2)c1)C1CCS(=O)(=O)C1 (stereo unspecified)		inconclusive: 23.1 µM [inhibitor, single point]
c1ccc(-c2ccc(OCCOCCn3cncn3)cc2)cc1	inconclusive: -8.66% [inhibitor]	
Oc1c(Br)cc(Br)cc1C=Nc1ccc2c(c1)OCO2	inactive: 12.7%	
CCOC(=O)C1(Cc2ccccc2Cl)CCN(C(=O)c2cc(C)on2)CC1		inconclusive: 29.1 µM [inhibitor, single point]
N#Cc1c(C(F)(F)F)cc(-c2cccs2)nc1SCC(=O)Nc1cccc(Cl)c1	inactive: -25.9%	
CCOC(=O)C1(Cc2ccccc2)CCN(Cc2ccc(C)s2)CC1		inconclusive: 25.9 µM [inhibitor, single point]
CCN(CC)c1ccc(/C=N/Nc2ccccc2)c(O)c1		inconclusive: 25.9 µM [inhibitor, single point]
CC(C)(C)c1cc(C(=O)N/N=C/c2ccncc2)n[nH]1		inconclusive: 11.6 µM [inhibitor, partial curve]
O=C(Cc1ccccc1)NC(=S)Nc1ccc(N2CCCCC2)cc1		inconclusive: 29.1 µM [inhibitor, single point]
O=C(CN1C(=O)C2C3CCC(C3)C2C1=O)OCC(=O)c1ccc(Br)cc1 (stereo unspecified)	inactive: -17.7%	
CC(=O)c1cccc(NC(=O)CN(c2cc(C)cc(C)c2)S(=O)(=O)c2c(C)noc2C)c1		active: 16.4 µM
COc1ccc(CN2CCOCC2)cc1OC	inactive: 16%	

Structure (SMILES)	activity change, negative = growth inhibition	Potency
NC1(CO)COC(c2ccccc2)OC1 (stereo unspecified)	inactive: 1.37%	
COc1ccc(C(=O)c2sc(Nc3ccccc3)nc2N)cc1		inconclusive: 18.4 µM [inhibitor, partial curve] and inconclusive: 20.6 µM [inhibitor, single point]
CCOC(=O)c1cc(-c2ccccc2C)nn1CC1CC(c2cccnc2)=NO1 (stereo unspecified)		inconclusive: 23.1 µM [inhibitor, single point]
CCCC(=O)Nc1c(-c2cccc(C)c2)c(=O)c2ccccc2n1C		inconclusive: 18.4 µM [inhibitor, single point]
Cc1cc(Cl)c(OCCCN2CCCCC2)c(Br)c1	inactive: -6.86%	
CC(C)C[C@H]1CNC(=S)N1C[C@H]1CCCN1C[C@H](CC(C)C)N1C[C@H](Cc2ccccc2)N(CCc2ccccc2)C1=S		inconclusive: 20.6 µM [inhibitor, single point]
C=CCSc1nc(C)c(CCC(C)C)c(=O)[nH]1		inconclusive: 29.1 µM [inhibitor, single point]
CN1CCC(N(C)C(=O)CCc2nc3ccccc3n2-c2ccccc2)CC1	inactive: -6.19%	
O=C(NCc1ccc(F)cc1)C(=O)c1cn(CC(=O)N2CCCC2)c2ccccc12		inconclusive: 16.4 µM [inhibitor, single point]
Cn1nc(C(C)(C)C)c([N+](=O)[O-])c1C(=O)Nc1cccc2ccccc12		inconclusive: 25.9 µM [inhibitor, single point]
COc1ccc(-c2onc(C)c2C)cc1S(=O)(=O)N(C)Cc1ccccc1		active: 20.6 µM
COC(=O)C1=C(CSc2nc3ccccc3s2)NC(=O)NC1c1ccc(F)cc1 (stereo unspecified)		inconclusive: 18.4 µM [inhibitor, single point]
Cc1cc(-n2ccnc(NCCc3ccc(S(N)(=O)=O)cc3)c2=O)ccc1Br		inconclusive: 29.1 µM [inhibitor, single point]
CC1(C)CC(=O)C2=C(C1)OC(N)=C([N+](=O)[O-])C2c1cccs1 (stereo unspecified)	inactive: 2.7%	
COc1cccc(NC(=O)C(OC(=O)c2ccccc2NS(=O)(=O)c2cccs2)c2ccccc2)c1 (stereo unspecified)	inactive: -12.7%	
Cc1ccccc1-c1ccc(CN2CCc3nnc(C(NS(C)(=O)=O)C(C)C)n3CC2)cc1 (stereo unspecified)		inconclusive: 1.84 µM [inhibitor, partial curve]
c1ccc(-c2nc(NCCCn3ccnc3)c3oc4ccccc4c3n2)cc1		inconclusive: 29.1 µM [inhibitor, single point]
Cc1c(-c2ccccc2)nc2c(Cl)cccc2c1C(=O)OCC(=O)c1ccc(F)cc1		inconclusive: 6.51 µM [inhibitor, full curve, poor fit]
COc1cccc(-n2c(SCC(=O)Nc3cc(C)on3)nc3ccccc3c2=O)c1		inconclusive: 35.5 µM [inhibitor, single point]
Cc1cccc(-n2cnc(C(=O)NNC(=S)Nc3ccccc3)c2)n1		inconclusive: 20.6 µM [inhibitor, single point]
Cc1cc(C)c2c(CC(=O)N(Cc3ccc(Cl)cc3)Cc3ccco3)coc2c1		inconclusive: 29.1 µM [inhibitor, single point]
COc1c2occc2c(OC)c2c(=O)cc(C(F)(F)F)oc12	inactive: 13.2%	
O=C(Nc1ccccc1)Nc1nccs1		inconclusive: 29.1 µM [inhibitor, single point]
CN1C(=O)c2ccc(Oc3ccccc3)cc2C1=O	inactive: 18.4%	

Structure (SMILES)	activity change, negative = growth inhibition	Potency
N#Cc1cccc(NC(=S)Nc2ccccc2)c1	inactive: -14.7%	
O=C(COC(=O)/C=C/c1ccc(Cl)cc1)NC1CCCCCC1	inactive: -6.11%	
O=C1C(=O)N(CC2CCCO2)C(c2ccccc2[N+](=O)[O-])/C1=C(/O)c1ccccc1 (stereo unspecified)	inactive: 5.81%	
Cc1cccc(-n2nnnc2SCC(=O)Nc2ccc(N3CCN(C)CC3)cc2)c1	inactive: -28.6%	
Cc1ccc(NC(=O)Cn2cc(S(=O)(=O)Cc3ccc(F)cc3)c3ccccc32)cc1Cl		inconclusive: 29.1 µM [inhibitor, single point]
Cc1c(Cl)cccc1NC(=O)NC1CCCCC1	inactive: -29.1%	
CCc1nnc(NC(=O)c2ccc3c(c2)C(=O)N(C(C)(C)C)C3=O)s1	inactive: -3.16%	
COc1ccc(Cl)cc1NC(=O)Cn1nnc(C(=O)NCCc2ccc(OC)c(OC)c2)c1N		inconclusive: 25.9 µM [inhibitor, single point]
COc1cccc(Nc2ncnc3ccccc23)c1		inconclusive: 29.1 µM [inhibitor, single point]
O=C(CSc1ccc2nnc(CCNC(=O)c3ccccc3)n2n1)NCCc1ccccc1	inactive: -1.53%	
CCc1ccc(NC(=O)CSC2=C(C#N)C(c3ccco3)C3=C(CCCC3=O)N2)cc1 (stereo unspecified)		inconclusive: 32.6 µM [inhibitor, single point]
O=C(/C=C/c1ccccc1)c1ccccc1O		active: 10.3 µM
CC(C)[C@H](NS(=O)(=O)c1ccccc1F)C(=O)NC1CCCCC1	inactive: -1.4%	
COc1cccc(NC(=S)N2CCN(Cc3ccccc3)CC2)c1	inactive: -11.3%	
CCCn1cc(NC(=O)C2CC(c3cccc(Br)c3)=NO2)cn1 (stereo unspecified)		inconclusive: 32.6 µM [inhibitor, single point]
Cc1nn(-c2ccccc2)c2c1c(C)c(CCC(=O)NCC1CCCO1)c(=O)n2C (stereo unspecified)		inconclusive: 29.1 µM [inhibitor, partial curve, poor fit]
O=C(Nc1ccccc1Cl)c1ccc([N+](=O)[O-])o1		inconclusive: 3.66 µM [inhibitor, single point]
C/C(=N\n1cnnc1)c1ccc(C#N)cc1	inactive: -1.97%	
Cn1c(C(=O)NCCN2CCN(c3ccccc3F)CC2)cc2c(=O)n(C)c3ccccc3c21		active: 18.4 µM
Cc1ccc(C(=O)NC(=S)Nc2ccc(NC(=O)c3cccs3)cc2)cc1[N+](=O)[O-]		active: 8.2 µM
CC1(C(=O)NS(=O)(=O)c2cccc(F)c2)CCN1C(=O)c1cccc2ccccc12 (stereo unspecified)	inactive: 0.466%	
CCCCNc1cccc2c1S(=O)(=O)N(CCCC)CC(COCc1ccccc1)O2 (stereo unspecified)		inconclusive: 29.1 µM [inhibitor, single point]
CC(C)(C)C(=O)CNS(=O)(=O)c1ccc(S(=O)(=O)NC2CCCC2)cc1		inconclusive: 23.1 µM [inhibitor, single point]
